# Test results as given in the supplement of paper PMC8728848.
# The other results are listed elsewhere or left out.
# B1: Dectin-1 (Mus musculus), Q6QLQ4 (protein)
# chain: GHNSGRNPEEKDNFLSRNKENHKPTESSLDEKVAPSKASQTTGGFSQPCLPNWIMHGKSCYLFSFSGNSWYGSKRHCSQLGAHLLKIDNSKEFEFIESQTSSHRINAFWIGLSRNQSEGPWFWEDGSAFFPNSFQVRNTAPQESLLHNCVWIHGSEVYNQICNTSSYSICEKEL
# Legend:
# Assay in all cases: glycan array binding signal (z-score within array); higher = stronger binding
# Details in all cases: glycan notation: IUPAC condensed, linker removed
# [1] = molecular target: 3-Anhydro-Gal(a1-3)Gal(b1-4)3-Anhydro-Gal(a1-3)Gal4S
# Method in brief: (§1)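 Glycan array binding is given as a within-array Z-score, which can be read as non-binding when negative. The arrays, 3228 of them, came from the Consortium for Functional Glycomics database and were retained only where the protein sequence was available. Z-scores were averaged across arrays of the same protein sequence at different concentrations or buffers and across linkers.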
# [2] = molecular target: 3-Anhydro-Gal(a1-3)Gal4S(b1-4)3-Anhydro-Gal(a1-3)Gal4S
# Method in brief: as §1
# [3] = molecular target: 3-Anhydro-Gal(a1-3)Gal4S(b1-4)3-Anhydro-Gal(a1-3)Gal4S(b1-4)3-Anhydro-Gal(a1-3)Gal4S
# Method in brief: as §1
# [4] = molecular target: 3-Anhydro-Gal(a1-3)Gal4S(b1-4)3-Anhydro-Gal(a1-3)Gal4S(b1-4)3-Anhydro-Gal(a1-3)Gal4S(b1-4)3-Anhydro-Gal(a1-3)Gal4S
# Method in brief: as §1
# [5] = molecular target: 3-Anhydro-Gal(a1-3)Gal4S(b1-4)3-Anhydro-Gal2S(a1-3)Gal4S(b1-4)3-Anhydro-Gal(a1-3)Gal4S
# Method in brief: as §1
# [6] = molecular target: 3dGal(b1-3)[Fuc(a1-4)]Glc
# Method in brief: as §1
# 3dGal(b1-4)Glc = molecular target: 3dGal(b1-4)Glc
# Method in brief: as §1
# [7] = molecular target: Ara(a1-5)Ara(a1-5)Ara(a1-5)Ara(a1-5)Ara(a1-5)Ara
# Method in brief: as §1
# [8] = molecular target: Ara(a1-5)Ara(a1-5)Ara(a1-5)Ara(a1-5)Ara(a1-5)Ara(a1-5)Ara
# Method in brief: as §1
# Fuc(a1-2)Gal = molecular target: Fuc(a1-2)Gal
# Method in brief: as §1
# [9] = molecular target: Fuc(a1-2)Gal(b1-3)GlcNAc(b1-3)Gal(b1-4)Glc
# Method in brief: as §1
# [10] = molecular target: Fuc(a1-2)Gal(b1-3)GlcNAc(b1-3)[Fuc(a1-3)[Gal(b1-4)]GlcNAc(b1-6)]Gal(b1-4)Glc
# Method in brief: as §1
# [11] = molecular target: Fuc(a1-2)Gal(b1-3)[Fuc(a1-4)]GlcNAc(b1-3)Gal(b1-4)Glc
# Method in brief: as §1
# [12] = molecular target: Fuc(a1-2)Gal(b1-3)[Fuc(a1-4)]GlcNAc(b1-3)Gal(b1-4)[Fuc(a1-3)]GlcNAc(b1-3)Gal(b1-4)Glc
# Method in brief: as §1
# [13] = molecular target: Fuc(a1-2)Gal(b1-3)[Fuc(a1-4)]GlcNAc(b1-3)[Fuc(a1-2)]Gal(b1-4)Glc
# Method in brief: as §1
# [14] = molecular target: Fuc(a1-2)Gal(b1-3)[Fuc(a1-4)]GlcNAc(b1-3)[Fuc(a1-3)[Gal(b1-4)]GlcNAc(b1-6)]Gal(b1-4)Glc
# Method in brief: as §1
# [15] = molecular target: Fuc(a1-2)Gal(b1-3)[Fuc(a1-4)]GlcNAc(b1-3)[Gal(b1-4)GlcNAc(b1-6)]Gal(b1-4)Glc
# Method in brief: as §1
# [16] = molecular target: Fuc(a1-2)Gal(b1-4)[Fuc(a1-3)]GlcNAc(b1-3)Gal(b1-4)Glc
# Method in brief: as §1
# [17] = molecular target: Fuc(a1-2)Gal(b1-4)[Fuc(a1-3)]GlcNAc(b1-3)[Fuc(a1-2)]Gal(b1-4)Glc
# Method in brief: as §1
# Fuc(a1-2)[Gal(a1-3)]Gal = molecular target: Fuc(a1-2)[Gal(a1-3)]Gal
# Method in brief: as §1
# [18] = molecular target: Fuc(a1-2)[Gal(a1-3)]Gal(b1-4)GlcNAc(b1-3)Gal(b1-4)Glc
# Method in brief: as §1
# [19] = molecular target: Fuc(a1-2)[GalNAc(a1-3)]Gal
# Method in brief: as §1
# [20] = molecular target: Fuc(a1-2)[GalNAc(a1-3)]Gal(b1-3)GlcNAc(b1-3)Gal(b1-4)Glc
# Method in brief: as §1
# [21] = molecular target: Fuc(a1-2)[GalNAc(a1-3)]Gal(b1-3)[Fuc(a1-4)]GlcNAc(b1-3)Gal(b1-4)Glc
# Method in brief: as §1
# [22] = molecular target: Fuc(a1-2)[Neu5Ac(bond)]Gal(b1-3)GlcNAc(b1-3)Gal(b1-4)Glc
# Method in brief: as §1
# Fuc(a1-3)GlcNAc6S = molecular target: Fuc(a1-3)GlcNAc6S
# Method in brief: as §1
# [23] = molecular target: Fuc(a1-3)[3dGal(b1-4)]Glc
# Method in brief: as §1
# [24] = molecular target: Fuc(a1-3)[Gal(b1-4)]GlcNAc
# Method in brief: as §1
# [25] = molecular target: Fuc(a1-3)[Gal(b1-4)]GlcNAc(b1-3)Gal(b1-4)Glc
# Method in brief: as §1
# [26] = molecular target: Fuc(a1-3)[Gal(b1-4)]GlcNAc(b1-3)Gal(b1-4)[Fuc(a1-3)]Glc
# Method in brief: as §1
# [27] = molecular target: Fuc(a1-3)[Gal(b1-4)]GlcNAc(b1-3)[Fuc(a1-2)]Gal(b1-4)Glc
# Method in brief: as §1
# [28] = molecular target: Fuc(a1-3)[Gal(b1-4)]GlcNAc(b1-3)[Fuc(a1-3)[Gal(b1-4)]GlcNAc(b1-6)]Gal(b1-4)Glc
# Method in brief: as §1
# [29] = molecular target: Fuc(a1-3)[Gal3S(b1-4)]Glc
# Method in brief: as §1
# [30] = molecular target: Fuc(a1-3)[Gal3S(b1-4)]GlcNAc
# Method in brief: as §1
# [31] = molecular target: Fuc(a1-3)[Gal3S(b1-4)]GlcNAc(b1-3)Gal(b1-4)Glc
# Method in brief: as §1
# [32] = molecular target: Fuc(a1-3)[Gal3S(b1-4)]GlcNAc6S(b1-3)Gal(b1-4)Glc
# Method in brief: as §1
# [33] = molecular target: Fuc(a1-3)[Gal6S(b1-4)]GlcNAc(b1-3)Gal(b1-4)Glc
# Method in brief: as §1
# Fuc(a1-6)GlcNAc = molecular target: Fuc(a1-6)GlcNAc
# Method in brief: as §1
# [34] = molecular target: Gal(a1-3)Gal(b1-4)Gal(a1-3)Gal
# Method in brief: as §1
# Gal(a1-4)Gal(b1-4)GlcNAc = molecular target: Gal(a1-4)Gal(b1-4)GlcNAc
# Method in brief: as §1
# Gal(b1-3)GalNAc = molecular target: Gal(b1-3)GalNAc
# Method in brief: as §1
# [35] = molecular target: Gal(b1-3)GalNAc(b1-4)Gal(b1-4)Glc
# Method in brief: as §1
# [36] = molecular target: Gal(b1-3)GalNAc(b1-4)Gal3S(b1-4)Glc
# Method in brief: as §1
# [37] = molecular target: Gal(b1-3)GalNAc(b1-4)[Neu5Ac(a2-3)]Gal(b1-4)Glc
# Method in brief: as §1
# [38] = molecular target: Gal(b1-3)GalNAc(b1-4)[Neu5Gc(a2-3)]Gal(b1-4)Glc
# Method in brief: as §1
binder,measurement,setting,value
B1,glycan array binding signal (z-score),[1],0.01
same,glycan array binding signal (z-score),[2],-0.08
same,glycan array binding signal (z-score),[3],-0.091
same,glycan array binding signal (z-score),[4],-0.091
same,glycan array binding signal (z-score),[5],-0.091
same,glycan array binding signal (z-score),[6],0.092
same,glycan array binding signal (z-score),3dGal(b1-4)Glc,-0.013
same,glycan array binding signal (z-score),[7],-0.047
same,glycan array binding signal (z-score),[8],-0.064
same,glycan array binding signal (z-score),Fuc(a1-2)Gal,-0.02
same,glycan array binding signal (z-score),[9],-0.068
same,glycan array binding signal (z-score),[10],-0.087
same,glycan array binding signal (z-score),[11],-0.018
same,glycan array binding signal (z-score),[12],0.085
same,glycan array binding signal (z-score),[13],-0.091
same,glycan array binding signal (z-score),[14],-0.081
same,glycan array binding signal (z-score),[15],-0.085
same,glycan array binding signal (z-score),[16],-0.091
same,glycan array binding signal (z-score),[17],-0.089
same,glycan array binding signal (z-score),Fuc(a1-2)[Gal(a1-3)]Gal,-0.091
same,glycan array binding signal (z-score),[18],-0.091
same,glycan array binding signal (z-score),[19],-0.033
same,glycan array binding signal (z-score),[20],-0.091
same,glycan array binding signal (z-score),[21],-0.034
same,glycan array binding signal (z-score),[22],-0.091
same,glycan array binding signal (z-score),Fuc(a1-3)GlcNAc6S,-0.021
same,glycan array binding signal (z-score),[23],-0.067
same,glycan array binding signal (z-score),[24],-0.091
same,glycan array binding signal (z-score),[25],-0.067
same,glycan array binding signal (z-score),[26],-0.03
same,glycan array binding signal (z-score),[27],-0.091
same,glycan array binding signal (z-score),[28],-0.091
same,glycan array binding signal (z-score),[29],-0.091
same,glycan array binding signal (z-score),[30],-0.091
same,glycan array binding signal (z-score),[31],-0.091
same,glycan array binding signal (z-score),[32],-0.091
same,glycan array binding signal (z-score),[33],-0.091
same,glycan array binding signal (z-score),Fuc(a1-6)GlcNAc,-0.091
same,glycan array binding signal (z-score),[34],-0.09
same,glycan array binding signal (z-score),Gal(a1-4)Gal(b1-4)GlcNAc,-0.091
same,glycan array binding signal (z-score),Gal(b1-3)GalNAc,-0.08
same,glycan array binding signal (z-score),[35],0.018
same,glycan array binding signal (z-score),[36],-0.091
same,glycan array binding signal (z-score),[37],-0.091
same,glycan array binding signal (z-score),[38],-0.091
